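Step 1: Grow cells in 96-well plates. Step 2: Expose to compound for 48 hours at 5 concentrations. Step 3: Interpolate endpoints linearly; if unreached, use highest concentration. Here, GI50 denotes the concentration required for 50% inhibition of growth.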 Calls of active or inactive are those of the source. Rule as the data show it: active = GI50 up to about 1.1 µM and inactive = higher.

This experiment concerns NCI-H322M. The experiment is described as follows: NCI anticancer screen, dose series, 48 h.
With `O=c1ccc2nc3ccc(O)cc3oc-2c1`, the GI50 was inactive: 34.4 µM.

In the case of `c1ccc(C(c2ccccc2)c2cccnc2)cc1`, the GI50 is inactive: > 100 µM.

On to `O=C(O)/C=C/c1ccncc1`, for which the GI50 is inactive: > 100 µM.

For the compound `CN(N=O)C(=O)N[C@H]1C(O)O[C@H](CO)[C@@H](O)[C@@H]1O` (stereo not given in full), the GI50 was inactive: 604 µM.

As to `COc1ccc2cc(C(=O)NCCCNC(=O)c3ccc4c(OC)c(OC)ccc4c3)ccc2c1OC`, the GI50 was inactive: > 100 µM.

For the compound `CSc1c(C#N)c(S)[nH]c(=O)c1C#N`, the GI50 is inactive: 67.5 µM.

With `CC1=NN(C(=O)c2ccccc2)C(=O)C1/N=N/c1ccccc1C(=O)O` (stereo not given), the GI50 was inactive: 27.6 µM.

For `COc1ccc(/C=C(/c2ccc(OC)cc2)c2c(Cl)cc(Cl)c(/C(=C\c3ccc(OC)cc3)c3ccc(OC)cc3)c2/N=N/c2ccccc2)cc1`, the GI50 is inactive: > 100 µM.

As for `O=C(CC(C(=O)c1ccsc1)c1ccccc1)c1cccs1` (stereo not given), the GI50 is inactive: > 100 µM.

`Cn1c(=O)c2c(nc3n2C(CCl)CO3)n(C)c1=O` (stereo not given): the GI50 was inactive: > 100 µM.

As for `COc1ccc(/C=C2\CC3C4CC=C5C[C@@H](O)CC[C@]5(C)C4CC[C@]3(C)\C2=N\O)cc1OC` (stereo not given in full), the GI50 was inactive: 43.2 µM.

As to `CCCCCCCCCCCCCCCCNCCCN(C)CCCN`, the GI50 is inactive: 16.8 µM.

With `O=C(O)C12CC3CC(C1)C2C=C3P(=O)(O)O` (stereo not given), the GI50 is inactive: > 100 µM.

For the compound `CN1C2CCC1CC(CC(=O)NC(c1ccc(F)cc1)c1ccc(F)cc1)C2` (stereo not given), the GI50 is inactive: > 100 µM.

As to `Cc1ccc(-c2c(C#N)c(N)nc3c2CCS(=O)(=O)c2ccccc2-3)cc1`, the GI50 was inactive: 83.2 µM.

On to `CCOC(=O)C1=CC(C)(C(=O)OCC)Nc2c(nc(OC)n(C)c2=O)N1` (stereo not given), for which the GI50 is inactive: > 10 µM.

Consider `O=C1CC(C(=O)O)Cc2c(Br)ccc(O)c21` (stereo not given), for which the GI50 is inactive: > 100 µM.

With `CCCNC1=Nc2ccccc2N(Cc2ccccc2)CC1`, the GI50 was inactive: 31.4 µM.

On to `COc1cc(C(=O)C/C(CCC(=O)Nc2ccc(Cl)cc2Cl)=N/NC(=O)C(=O)NN)ccc1O`, for which the GI50 is inactive: > 100 µM.

As to `CC(O)(c1ccccc1)c1nccc2ccccc12` (stereo not given), the GI50 was inactive: 68.9 µM.

For the compound `COc1ccc(C(O)(c2ccccc2)c2nccc3ccccc23)cc1` (stereo not given), the GI50 is inactive: 8.89 µM.

As to `CN(C)CCNC(=O)c1cccc2c1nc(-c1cccnc1)c1ccccc12`, the GI50 is inactive: 5.33 µM.

Turning to `CCOC(=O)c1c(SC(=O)c2ccc(Cl)cc2)n(-c2ccccc2)c(=S)n(-c2ccccc2)c1=O`, the GI50 is inactive: > 100 µM.

For the compound `CCCCCCC1NN(C(C)=O)C(CCCCCC)NN1C(C)=O` (stereo not given), the GI50 was inactive: > 100 µM.

For the compound `O=C(O)Cc1cc(F)ccc1C(=O)O`, the GI50 is inactive: 49.3 µM.

As to `CN(C)CCNC1=Nc2ccccc2C(=S)N2CSCC12` (stereo not given), the GI50 is inactive: > 100 µM.

As to `Cc1nc(-n2nc(-c3ccccc3)cc2-c2ccccc2)sc1C(/C=C/c1ccc([N+](=O)[O-])cc1)=N/NC(=O)c1ccncc1`, the GI50 is inactive: 29.8 µM.

With `CCN(CC)CC(=N)N(CC)c1ccccc1`, the GI50 was inactive: > 100 µM.

Consider `NC(CCC(=O)NC(CSC(=O)N(O)c1ccc(Br)cc1)C(=O)NCC(=O)O)C(=O)O` (stereo not given), for which the GI50 is inactive: > 100 µM.

For the compound `O=CCCn1[nH]c(=O)ccc1=O`, the GI50 is inactive: > 100 µM.

For `CCCCCCCCCCCC(=O)C1=C(O)CCC(O)C1=O` (stereo not given), the GI50 was inactive: 24.3 µM.

Consider `Cc1cc(Cl)ccc1NC1=NC(=O)C(CC(=O)Nc2cccc(Cl)c2)S1` (stereo not given), for which the GI50 is inactive: 75.9 µM.

For the compound `O=[S@@]1Nc2ccc(Br)cc2S1`, the GI50 is inactive: > 100 µM.

With `Cc1cc(C)nc(NS(=O)(=O)c2ccc(NNC(=O)c3cccc4c(=O)c5ccccc5[nH]c34)cc2)n1`, the GI50 was inactive: 52.2 µM.

For the compound `Clc1ccc(COc2ccccc2/C=N/c2c(-c3ccco3)nc3ccccn23)c(Cl)c1`, the GI50 was inactive: > 100 µM.

Consider `COc1cccc(/C=C2\CCC(C)(CN(C)C)C2=O)c1` (stereo not given), for which the GI50 was inactive: > 100 µM.

On to `Cc1c(Cl)nc(Nc2nc3ccccc3[nH]2)nc1Cl`, for which the GI50 is inactive: 40.5 µM.

On to `O=C1CCCC(=O)N1CCc1c[nH]c2ccccc12`, for which the GI50 is inactive: > 100 µM.

For `CC1=C(C)C(=O)C(C2=C(C3=CC(=O)C(C)=C(C)C3=O)C(=O)c3ccccc3C2=O)=CC1=O`, the GI50 is inactive: 9.95 µM.

`CC1(O)OC(=O)C2=C1CCC1C2CCC2(C)C(O)CCC12` (stereo not given): the GI50 is inactive: > 100 µM.

As for `C/N=C1\S/C(=N\c2ccc(N(C)C)cc2)N1C`, the GI50 was inactive: 52.2 µM.

`O=C(NC(Cc1ccc(I)cc1)C(=O)O)c1ccc(I)cc1` (stereo not given): the GI50 is inactive: > 100 µM.

For the compound `C/C(=N/NC(=S)N1CCCCCC1)c1ccccc1O`, the GI50 is inactive: 9.68 µM.

For the compound `COC1C(=O)CCC2(CO2)C1(O)C1(C)OC1CC=C(C)C` (stereo not given), the GI50 was inactive: 27.7 µM.

`COc1cc2c(oc(=O)c3cc4cc([Si](C)(C)C)oc4c(OC)c32)c2cccc(O)c12`: the GI50 was inactive: > 100 µM.

With `COC/C=C\[C@@]1(O)CCCC[C@@H]1CC(OC)OC`, the GI50 is inactive: > 100 µM.

For the compound `CCNC1CC(C(C)(C)NCC)CC=C1C` (stereo not given), the GI50 is inactive: > 100 µM.

Consider `NC1=CN(Cc2ccccc2)C2=N/C(=C\c3ccccc3O)C(=O)N12`, for which the GI50 is inactive: > 100 µM.

As for `CCN1CCC(C)OP1(=O)Cc1ccccc1` (stereo not given), the GI50 was inactive: > 100 µM.

Turning to `Nc1cc2ncnn2c(SCC(=O)N/N=C/C(Br)=C\c2ccccc2)n1`, the GI50 was inactive: 22.1 µM.

As to `Cc1c(C(=O)CC(=O)C(=O)Nc2ccccc2C(F)(F)F)[n+]([O-])c2ccccc2[n+]1[O-]`, the GI50 is inactive: 21.4 µM.

On to `COc1cc(C(C)O)c[n+](Cc2ccccc2)c1` (stereo not given), for which the GI50 was inactive: > 100 µM.

In the case of `O=[N+]([O-])c1ccc(/C=N/Nc2nnc3c4ccccc4c4ncccc4c3n2)o1`, the GI50 is inactive: > 10 µM.

Take `O=C(O)CN(CC(=O)O)C(C(=O)O)c1ccccc1` (stereo not given): the GI50 is inactive: > 100 µM.

`Cc1ccc(S(=O)(=O)NC(C(=O)O)C(C)C)cc1` (stereo not given): the GI50 is inactive: > 100 µM.

For `COc1ccc(CN/C=N/C(C#N)=C(\N)C#N)cc1OC`, the GI50 was inactive: 81.7 µM.

For the compound `CCOC(=O)c1ccc(Nc2nc3cc(C(F)(F)F)ccc3nc2C(=O)OCC)cc1`, the GI50 was inactive: 76.7 µM.

In the case of `CC(=O)Oc1ccc2cc(Oc3ccc(Cl)c(Cl)c3)c(=O)oc2c1`, the GI50 was inactive: 43.2 µM.

Consider `CNC(=O)NCCCCC(NC(C)=O)C(=O)NCc1ccccc1` (stereo not given), for which the GI50 is inactive: > 100 µM.

As to `Cc1ccc(C(=O)N2c3ccccc3N(C)n3cccc3C2CC(=O)O)cc1` (stereo not given), the GI50 was inactive: > 100 µM.

Consider `O=[N+]([O-])c1ccc(-n2nnc(C3=NCCCN3)c2-c2ccc(Cl)cc2)cc1`, for which the GI50 was inactive: > 100 µM.

As to `O=C(OCc1c(-c2ccccc2)nn(-c2ccccc2)c1COC(=O)Oc1ccccc1)Oc1ccccc1`, the GI50 is inactive: > 100 µM.

In the case of `CC(C)=CCN1c2ccc(Cl)cc2NC(=O)CC1C` (stereo not given), the GI50 was inactive: 36.4 µM.

On to `O=C1C(=O)C(CCCO)(CCCO)CCCCCCCCC1(CCCO)CCCO`, for which the GI50 was inactive: > 100 µM.

For the compound `S=C1C(CCCOCc2ccccc2)C2CCCC23CC2(CCN13)OCCS2` (stereo not given), the GI50 was inactive: > 10 µM.

In the case of `COCOc1c(C(O[Si](C)(C)C(C)(C)C)c2cnc(Sc3ccccc3)n2C)ccc(OC)c1OC` (stereo not given), the GI50 was inactive: 2.85 µM.

In the case of `CC(=O)NC1=C(NCc2ccc(Cl)cc2)C(=O)c2ccccc2C1=O`, the GI50 is inactive: > 50 µM.

As for `COC(=O)c1cc2c3c(cc(N(C)C)c2[nH]1)N(C(=O)c1cc2cc(OC)c(OC)c(OC)c2[nH]1)CC3CCl` (stereo not given), the GI50 was active: 0.00665 µM.

For `COc1ccc2c(c1O)C(=O)C(CCC(=O)O)CC2` (stereo not given), the GI50 is inactive: > 100 µM.

Consider `COc1cc(C2c3cc4c(cc3OC(N3CCCCC3)C2C)OCO4)cc(OC)c1OC` (stereo not given), for which the GI50 was inactive: 5.37 µM.

In the case of `CC(=O)c1cccc(NC(=O)C(=O)C(C(=O)c2ccccc2F)C2OC(=O)c3ccccc32)c1` (stereo not given), the GI50 was inactive: 33.3 µM.

For `CC(=O)OCC1OC(n2c(-c3ccc(Cl)cc3)cc(-c3ccccc3)c(C#N)c2=S)C(OC(C)=O)C(OC(C)=O)C1OC(C)=O` (stereo not given), the GI50 is inactive: 16.8 µM.

`O=C1C(Cl)=C(N2CCC[C@H]2CO)C(=O)c2c(O)ccc(O)c21`: the GI50 is inactive: > 10 µM.

`O=[N+]([O-])c1cc(Cl)cc2cc(Cl)cnc12`: the GI50 is inactive: > 100 µM.

Regarding `C=CCN(N=O)C(=O)N(CCC)CCCCC(NC(C)=O)C(=O)NCc1ccccc1` (stereo not given), the GI50 is inactive: > 100 µM.

As for `CC(C)(Br)C(Br)CCC(C)(Br)C(Br)CO` (stereo not given), the GI50 was inactive: > 10 µM.

Take `O=C1C2C(C(=O)N1OS(=O)(=O)c1ccccc1)N(Cc1ccccc1)C(=O)N2Cc1ccccc1` (stereo not given): the GI50 was inactive: > 100 µM.

`O=C1/C(=C/c2ccccc2S)N=C(c2ccccc2)N1c1nc2c(Cl)cc(Cl)cc2s1`: the GI50 was inactive: 23.9 µM.

For the compound `COc1ccc2c(O)c1-c1c(OC)ccc(c1O)SSc1ccc(OC)c(c1O)-c1c(OC)ccc(c1O)SS2`, the GI50 is inactive: > 100 µM.

As for `COc1cc(Br)c(CC2C3=C(CCN2C(=O)C2CCC2)CC(=O)CC3)cc1O` (stereo not given), the GI50 was inactive: 67.3 µM.

As for `CC1(C)CC[C@]2(C(=O)O)CCC3(C)C(=CCC4[C@@]5(C)CC[C@H](OC6OCC(O)C(O)C6OC6OC(CO)C(O)C(O)C6O)C(C)(C)C5CC[C@]43C)C2C1` (stereo not given in full), the GI50 is inactive: 2.07 µM.

For `CC12CCC(=O)[C@@]1(C)CCCC2O` (stereo not given in full), the GI50 was inactive: > 100 µM.

With `COc1cccc(/C=C/C(=O)N2CC(CCl)c3c2cc(N)c2ccccc32)c1` (stereo not given), the GI50 is active: 0.0114 µM.

Consider `CC(Oc1ccc(Oc2cnc3ccc(Cl)cc3n2)cc1)C(=O)O` (stereo not given), for which the GI50 is inactive: > 94.4 µM.

On to `CN(C)Cc1cc(C(=O)/C=C/c2ccc([N+](=O)[O-])cc2)cc(CN(C)C)c1O`, for which the GI50 is inactive: 4.24 µM.

The values above are taken from ChEMBL document CHEMBL1201862, “PubChem BioAssay data set” (2004).
